# Results as given in the supplement of paper PMC7826260.
# Some of the results follow. One pool of 16,384 single-stranded DNAs met each Rep nickase domain in vitro at 3 µM enzyme and 37 °C for 1 h; the strands have 90 letters, of which the middle is given. The score is log2 (uncut reads / reads without enzyme); more negative means more cut, near 0 not cut, and no call is made. Because reads are shares of a total, they shift together; uncut strands gain when others are lost, and binding without cutting may add a little.
# Columns and labels:
# Experiment in all cases: uncleaved DNA left, log2 of reads against the no-enzyme library (log2 ratio); higher = less cleavage (more negative = more Rep cleavage of the k-mer); sequences stand for … in CTCGTCCG…ACCGGAGA
# [1] = tested on: T1, Rep nickase domain of Muscovy duck circovirus
# T1 sequence (Rep 1-111, printed without the tag): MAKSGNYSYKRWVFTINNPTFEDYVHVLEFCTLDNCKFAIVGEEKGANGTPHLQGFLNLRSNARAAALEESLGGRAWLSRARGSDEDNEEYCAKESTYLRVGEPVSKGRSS
# Procedure: (§1)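 A pool of 90-nt single-stranded DNAs with seven random bases just before the constant AC of the nick site (name = the seven bases) was cut by 3 µM recombinant His6-SUMO-tagged Rep nickase domain (300 nM DNA, 50 mM HEPES pH 8.0, 50 mM NaCl, 1 mM MnCl2, 1 h, 37 °C, three replicates). Uncut DNA was amplified and sequenced.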
# [2] = tested on: T2, Rep nickase domain of banana bunchy top virus
# T2 sequence (Rep 1-94, printed without the tag): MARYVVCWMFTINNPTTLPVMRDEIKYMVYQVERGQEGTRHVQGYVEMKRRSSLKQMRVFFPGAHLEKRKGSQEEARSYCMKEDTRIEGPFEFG
# Procedure: as §1
# [3] = tested on: T3, Rep nickase domain of cabbage leaf curl virus
# T3 sequence (Rep 1-116, printed without the tag): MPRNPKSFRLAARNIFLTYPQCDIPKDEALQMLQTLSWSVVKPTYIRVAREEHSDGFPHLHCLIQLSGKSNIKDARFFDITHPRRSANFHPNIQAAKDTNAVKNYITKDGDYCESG
# Procedure: as §1
# [4] = tested on: T4, Rep nickase domain of chickpea chlorotic dwarf virus
# T4 sequence (Rep 1-124, printed without the tag): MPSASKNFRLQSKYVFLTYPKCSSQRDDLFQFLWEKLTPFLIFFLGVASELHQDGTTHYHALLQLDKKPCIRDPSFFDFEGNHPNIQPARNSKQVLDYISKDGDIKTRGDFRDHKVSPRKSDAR
# Procedure: as §1
# [5] = tested on: T5, Rep nickase domain of faba bean necrotic yellows virus
# T5 sequence (Rep 1-98, printed without the tag): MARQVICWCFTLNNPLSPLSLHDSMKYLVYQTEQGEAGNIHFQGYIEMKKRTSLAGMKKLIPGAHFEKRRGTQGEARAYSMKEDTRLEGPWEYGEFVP
# Procedure: as §1
# [6] = tested on: T6, Rep nickase domain of maize striate mosaic virus
# T6 sequence (Rep 1-117, printed without the tag): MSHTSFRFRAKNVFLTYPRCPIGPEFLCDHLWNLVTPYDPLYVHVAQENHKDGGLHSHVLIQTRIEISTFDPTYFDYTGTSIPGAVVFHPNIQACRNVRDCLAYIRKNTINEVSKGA
# Procedure: as §1
# [7] = tested on: T7, Rep nickase domain of porcine circovirus 2
# T7 sequence (Rep 2-116, printed without the tag): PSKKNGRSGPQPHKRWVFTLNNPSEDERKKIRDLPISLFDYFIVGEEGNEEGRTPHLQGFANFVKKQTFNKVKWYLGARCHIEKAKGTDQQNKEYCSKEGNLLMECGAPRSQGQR
# Procedure: as §1
# [8] = tested on: T8, Rep nickase domain of tomato golden mosaic virus
# T8 sequence (Rep 1-124, printed without the tag): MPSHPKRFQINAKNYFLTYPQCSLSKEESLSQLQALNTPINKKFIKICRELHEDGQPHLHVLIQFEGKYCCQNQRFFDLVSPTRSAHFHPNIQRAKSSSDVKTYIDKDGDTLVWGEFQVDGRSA
# Procedure: as §1
# [9] = tested on: T9, Rep nickase domain of tomato yellow leaf curl virus
# T9 sequence (Rep 1-136, printed without the tag): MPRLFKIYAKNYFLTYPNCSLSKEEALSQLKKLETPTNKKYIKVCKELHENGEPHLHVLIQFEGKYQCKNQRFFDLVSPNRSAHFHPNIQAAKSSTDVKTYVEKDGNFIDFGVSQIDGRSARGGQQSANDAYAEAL
# Procedure: as §1
# [10] = tested on: T10, Rep nickase domain of wheat dwarf virus
# T10 sequence (Rep 1-137, printed without the tag): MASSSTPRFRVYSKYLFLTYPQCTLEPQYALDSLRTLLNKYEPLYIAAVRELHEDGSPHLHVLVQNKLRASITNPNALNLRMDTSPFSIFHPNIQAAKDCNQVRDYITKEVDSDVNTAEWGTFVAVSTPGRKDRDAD
# Procedure: as §1
Sequence,uncleaved DNA left (log2) [1],uncleaved DNA left (log2) [2],uncleaved DNA left (log2) [3],uncleaved DNA left (log2) [4],uncleaved DNA left (log2) [5],uncleaved DNA left (log2) [6],uncleaved DNA left (log2) [7],uncleaved DNA left (log2) [8],uncleaved DNA left (log2) [9],uncleaved DNA left (log2) [10]
CAAGTAC,-0.0754,-0.0683,-0.358,-0.569,0.0288,-0.891,0.024,-0.0347,-0.0965,-0.048
CGTCATA,0.0561,0.107,0.0521,-0.309,0.136,-0.0819,-0.0672,0.0343,0.196,0.123
CGTATGC,-0.0133,-0.105,-0.264,-0.346,-0.125,-0.925,-0.0156,-0.091,-0.109,-0.0849
ACGTTTT,-2.37,-0.399,-0.437,-2.29,-0.0679,-0.437,-3.26,-0.102,-0.102,-0.111
CGACGTC,0.029,-0.0879,0.0204,0.44,-0.0779,1.19,0.00621,-0.161,-0.21,-0.0375
AGTAGAT,0.0883,0.0935,0.285,1.32,-0.0322,1.63,-2.72,0.0995,-0.102,-0.0204
CTTCATT,-0.319,-0.0781,-0.15,-2.22,0.0106,-0.597,-1.74,-0.073,-0.00674,0.208
GAATTCG,0.0132,0.0245,-0.768,0.249,0.0268,-0.69,0.0671,-0.105,0.0862,-0.104
TTTACAC,0.058,-0.00442,0.166,-1.08,0.0659,0.0651,0.0516,-0.0431,0.0763,0.0793
CGGTGTC,-0.0379,-0.157,0.288,0.286,-0.00107,0.149,-0.00721,-0.0863,0.0386,-0.0142
GGTTCGA,0.114,-0.0237,0.34,0.761,-0.00683,0.911,0.0456,0.0473,0.00546,0.107
CTGCCCC,-0.343,-0.164,0.0836,-0.196,-0.142,-0.112,-0.6,-0.121,-0.0924,-0.11
CAGCGGC,-0.0372,0.00799,-0.211,-0.354,0.0717,-0.702,0.0776,-0.0181,-0.109,0.016
CTATTAC,-2.95,-0.169,-0.671,-2.79,0.123,-1,-3.29,-0.0476,0.114,-0.0956
ACGGCGG,-0.214,-0.177,-0.64,-0.385,-0.147,-0.83,-0.0264,-0.024,-0.139,-0.221
CTGCGAA,-0.0669,-0.15,-0.697,-0.39,-0.0951,-1.04,0.16,-0.138,0.0279,-0.0553
TAGAAGT,0.187,-0.202,-0.185,-1.14,-0.0954,-0.69,-3.37,0.0622,-0.0224,0.00303
CCGGGAC,-0.0626,0.097,0.817,1.46,-0.0368,2.2,0.0848,-0.00054,0.0943,-0.00895
GGAAGCT,0.192,0.144,0.514,1.11,0.139,1.38,0.201,0.0383,0.165,0.209
CATAGGA,-0.0313,-0.0375,0.0499,0.275,-0.00391,-0.573,0.0745,-0.0217,-0.12,-0.061

Sequence,uncleaved DNA left (log2) [1],uncleaved DNA left (log2) [2],uncleaved DNA left (log2) [3],uncleaved DNA left (log2) [4],uncleaved DNA left (log2) [5],uncleaved DNA left (log2) [6],uncleaved DNA left (log2) [7],uncleaved DNA left (log2) [8],uncleaved DNA left (log2) [9],uncleaved DNA left (log2) [10]
ATTCACG,-0.0515,-0.144,-0.952,-0.222,0.03,-1.32,0.116,-0.191,-0.167,-0.18
CGGCCCG,0.0424,-0.0578,-0.625,-0.269,-0.0753,-0.692,-0.0104,-0.143,-0.0834,-0.17
CGCCAAA,0.0221,0.107,-0.0172,0.17,0.0195,-0.426,-0.0124,0.0475,-0.0288,0.114
AGTCATG,0.0317,0.0197,-0.0752,0.261,0.0586,0.0925,0.0936,0.18,0.108,0.0897
TCCTCAT,0.0545,-0.206,0.158,-0.356,-0.0442,-0.0368,-0.694,-0.024,0.0732,-0.095
ACGCTAT,-0.0204,-0.202,-0.289,-0.771,-0.00992,-0.512,0.144,0.0121,-0.00422,-0.00546
TGTCATC,0.0994,0.188,0.466,0.807,0.213,0.983,0.13,0.0815,0.135,0.138
TGTGCAA,-0.0413,0.153,0.256,0.658,0.0846,0.58,0.0819,0.0209,0.108,0.063
TTTCCCC,-1.03,-0.178,0.166,-0.23,-0.0972,-0.0712,-2.37,-0.201,-0.0875,-0.019
CGTGATG,0.24,0.0747,0.0363,0.37,0.118,0.126,0.0356,0.0751,-0.0311,0.0452
AATCGCC,-0.00703,-0.0576,-0.229,-0.242,-0.0102,-0.632,0.0634,-0.00564,0.0493,-0.00892
CTTTATA,-0.0858,0.0935,-0.196,-1.86,0.16,-0.721,-0.4,-0.052,-0.0282,0.0203
GAGGTGG,-0.185,-0.105,0.01,0.361,-0.0109,0.0377,0.0364,0.0506,-0.109,0.00363
GGATGCG,-0.0132,-0.0665,-0.283,0.967,0.115,0.468,0.0921,-0.0553,-0.139,-0.145
ACCAAGT,-0.0239,-0.0499,-0.0573,-0.443,0.0655,-1.09,0.0297,-0.00387,-0.00983,-0.0111
ACAGAAC,-0.0039,0.0294,-0.0901,-0.315,0.0716,-0.679,0.128,0.0736,-0.0762,-0.0086
TTGAGTG,0.266,0.0958,-0.165,-0.231,0.23,-0.731,0.31,0.125,0.237,0.0753
AGTTAGA,0.0323,-0.0407,-0.0702,-0.0503,-0.0596,-0.777,-0.159,0.0262,0.0337,-0.0218
CCAATTC,0.0424,0.00779,0.00307,-0.187,0.133,-1.03,0.141,0.112,-0.0306,-0.0133
ATGTCTA,-0.0127,-0.172,-0.132,-1.15,-0.0443,-0.518,-0.361,0.0352,0.0152,0.0317

Sequence,uncleaved DNA left (log2) [1],uncleaved DNA left (log2) [2],uncleaved DNA left (log2) [3],uncleaved DNA left (log2) [4],uncleaved DNA left (log2) [5],uncleaved DNA left (log2) [6],uncleaved DNA left (log2) [7],uncleaved DNA left (log2) [8],uncleaved DNA left (log2) [9],uncleaved DNA left (log2) [10]
GAACGGA,0.19,0.168,0.293,0.73,0.0776,0.393,0.255,0.188,0.0341,0.137
TGTAGAA,0.128,0.0106,0.286,0.151,0.0442,0.0896,0.0699,0.169,0.00689,0.00723
ACAAGAA,0.0264,0.0972,-0.104,0.015,0.125,-0.761,0.1,0.05,-0.0921,0.0574
AAAATAT,-0.115,-0.0895,-1.65,-2.41,-0.0274,-0.417,-0.74,-0.094,-0.0387,-0.496
TGGAGTC,0.0515,0.158,0.398,0.889,0.0159,0.727,0.0536,-0.0251,0.0123,0.207
TTGTATG,-0.0528,-0.189,-0.635,-0.74,-0.0609,-1.13,0.0307,-0.0199,-0.0754,-0.145
TCCATTA,-0.133,-0.208,-0.0468,-1.13,0.0514,-0.931,-0.117,-0.133,0.0314,-0.143
GTGGTTC,-0.0939,-0.0546,0.327,0.881,0.0141,1.93,0.15,-0.0473,0.0376,0.093
TTTCGCG,0.0532,-0.102,-0.705,0.442,0.021,-0.796,0.00692,-0.11,-0.179,-0.146
AAGCAGC,0.106,-0.0139,-0.175,-0.44,0.0705,-0.751,0.14,0.0146,-0.0199,-0.0103
GCAGGTT,0.0394,0.0161,0.325,0.542,-0.00904,1.27,0.0919,0.121,0.00389,-0.0448
TGAAGTT,0.0333,0.0346,-0.251,-2.16,0.0823,-0.385,-0.321,-0.000458,0.0855,-0.109
GTGAATC,-0.0131,0.102,0.107,0.776,-0.106,1.73,-0.0342,0.0265,-0.043,0.0868
TTTTAAT,-3.42,-0.419,0.0868,-1.12,0.138,-0.00341,-3.28,0.0367,0.069,-0.118
GCGTCAT,-0.00276,0.0416,0.638,1.52,-0.0328,1.82,0.0365,-0.0454,-0.015,0.0142
CAATCAG,0.0427,-0.029,-0.767,-0.229,0.117,-1.06,0.207,0.0202,0.0415,-0.0786
CCTTCAT,-0.116,-0.0482,-0.158,-1.11,-0.117,-0.886,-0.404,-0.169,-0.159,-0.0869
GTAGTTC,0.0512,0.0484,0.431,0.729,-0.0261,1.6,0.0654,0.0476,0.139,0.0479
AGTTTCG,-0.00567,-0.168,-0.889,-0.32,-0.123,-1.22,-0.0516,-0.0881,-0.0752,-0.116
ATTACTG,-0.0391,-0.0923,-0.129,0.000743,-0.0225,0.602,0.0103,-0.105,-0.162,-0.00373
